Test results taken from US20260000782A1, “ITGB2-MEDIATED DRUG DELIVERY SYSTEM” (TWINPIG BIOLAB INC., priority 2022, published 2026).

Target: T1, ITGB2 (Homo sapiens, UniProt P05107)
T1 construct: cell membrane proteins of macrophages were obtained using a cell membrane protein extraction kit; endogenous in cells; host or cells: THP-1 cells differentiated into M2 (and M0, M1) macrophages
Experiment: Biotin-peptide pull-down of macrophage cell membrane proteins, LC-MS/MS proteomics
Type: binding
Settings: cell membrane proteins of M0, M1, M2 macrophages, peptide-biotin 200 μg, 1 hour
Method: To determine which protein of M2 macrophages was involved in the specific binding of melittin to M2 macrophages, biotin-conjugated melittin (melittin-biotin) was synthesized. THP-1 cells (5×10^6 cells) were differentiated into M0, M1, and M2 macrophages, and then collected using a scraper, washed by centrifugation (300×g, 5 min), and cell membrane proteins of macrophages were obtained using a cell membrane protein extraction kit (Thermo Fisher scientific). The proteins reacted with melittin-biotin (200 μg) in which biotin bound to melittin at room temperature (20 to 24° C.) for 1 hour, and then the proteins bound to melittin were obtained using a streptavidin resin (Thermo Fisher scientific). To remove the salt, 100 μl each of 100% methanol, 0.1% formic acid, and 80% CAN were added to an 18 Micro Spin-Column, and the sample was loaded onto the prepared column, and added with 50 μl of 0.1% formic acid to remove unnecessary substances. […] After desalting, the solution was completely removed by drying with a Speed-vac, and analyzed by LC-MS/MS using a UPLC-Exactive equipment (Thermo Fisher Scientific) under the conditions shown in Table 2 below. […] For data analysis, LC-MS/MS data for each sample were analyzed using Proteome Discoverer, and performed by LFQ (Label-Free Quantification) using a human database of Uniprot as the database. […]

CC[C@H](C)[C@H](NC(=O)CN)C(=O)NCC(=O)N[C@@H](C)C(=O)N[C@H](C(=O)N[C@@H](CC(C)C)C(=O)N[C@@H](CCCCN)C(=O)N[C@H](C(=O)N[C@@H](CC(C)C)C(=O)N[C@H](C(=O)N[C@H](C(=O)NCC(=O)N[C@@H](CC(C)C)C(=O)N1CCC[C@H]1C(=O)N[C@@H](C)C(=O)N[C@@H](CC(C)C)C(=O)N[C@H](C(=O)N[C@@H](CO)C(=O)N[C@@H](Cc1c[nH]c2ccccc12)C(=O)N[C@H](C(=O)N[C@@H](CCCCN)C(=O)N[C@@H](CCCNC(=N)N)C(=O)N[C@@H](CCCCN)C(=O)N[C@@H](CCCNC(=N)N)C(=O)N[C@@H](CCC(N)=O)C(=O)N[C@@H](CCC(N)=O)C(N)=O)[C@@H](C)CC)[C@@H](C)CC)[C@@H](C)O)[C@@H](C)O)C(C)C)C(C)C [melittin, Melittin]
M2 macrophage membrane protein bound by biotin-conjugated peptide: interacted and bound with the membrane protein ITGB2 of M2 macrophages
